Test results reported in the supplement of paper PMC3334620.
Over roughly 33,000 sequences, “E-score (-0.5 to 0.5)” has its median near -0.012; the highest 2% begin near 0.27. The list shows a part of the results.

The sequences below were run against T1, Vhr1 (UniProt P40522) (assay: PBM E-score (8-mer binding enrichment) (E-score (-0.5 to 0.5)); higher = stronger / more preferred TF binding; most listed sequences are background and not binding sites). Details: protein concentration: 200 nM; construct: GST-full length.
T1 sequence: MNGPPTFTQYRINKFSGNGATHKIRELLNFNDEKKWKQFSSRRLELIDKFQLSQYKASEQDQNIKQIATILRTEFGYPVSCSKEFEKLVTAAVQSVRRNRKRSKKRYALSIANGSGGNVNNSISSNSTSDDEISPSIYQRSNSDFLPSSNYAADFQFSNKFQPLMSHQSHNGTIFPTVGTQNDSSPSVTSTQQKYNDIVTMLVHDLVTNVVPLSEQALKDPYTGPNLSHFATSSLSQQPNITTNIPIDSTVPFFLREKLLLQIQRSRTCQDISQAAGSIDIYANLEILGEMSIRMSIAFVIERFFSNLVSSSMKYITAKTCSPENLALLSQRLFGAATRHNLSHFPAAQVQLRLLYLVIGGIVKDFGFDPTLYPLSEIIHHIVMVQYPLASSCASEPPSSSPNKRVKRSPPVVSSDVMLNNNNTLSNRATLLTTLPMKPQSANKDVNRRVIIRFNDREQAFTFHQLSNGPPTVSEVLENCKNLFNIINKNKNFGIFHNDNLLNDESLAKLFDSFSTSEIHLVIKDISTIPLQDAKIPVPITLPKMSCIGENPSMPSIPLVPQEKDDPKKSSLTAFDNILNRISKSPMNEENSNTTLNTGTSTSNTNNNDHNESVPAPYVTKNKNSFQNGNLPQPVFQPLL
Method: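 Universal 'all 10-mer' protein binding microarrays (Agilent AMADID 015681) probed with GST-tagged S. cerevisiae TFs (full-length or DBD) made by in vitro transcription/translation (PURExpress), about 100-200 nM. Bound TF was detected with fluorescent anti-GST. Each ungapped 8-mer (which stands for itself and its reverse complement) is scored by the PBM enrichment score (E-score), a modified Wilcoxon-Mann-Whitney statistic from -0.5 to +0.5, computed with the Universal PBM Analysis Suite. Scale: above 0.35 generally sequence-specific binding.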

Sequence	PBM E-score
AATGTAAG	0.0748
ACGCAGGA	-0.00404
AAGAGGGG	-0.00511
CCGCGTCG	0.202
GCTTTAAA	-0.187
GGGCGTCA	-0.103
GCCGCCAA	0.0203
GATTTCAC	0.205
CGCAAATA	-0.0728
CCCTCACC	0.146
GAACATGC	-0.146
CAATCGCC	-0.00346
AGCGATCG	-0.0914
ATCAGCAC	-0.0238
AATTCAAT	-0.169
AGTCGAAC	0.129
ACGAAATC	0.0327
CTGAAGAC	-0.125
CCGAGTAA	0.0614
GGTCACAC	0.0719
ACGACTTA	-0.0824
GACTGCAC	0.0745
CCAGACAA	-0.103
TACTACGA	0.175
TAACCCGA	-0.127

Sequence	PBM E-score
TCCTCTAA	-0.187
TAGGGTGA	0.151
CTACCCTA	-0.0737
ACAAATAC	0.176
ATCGGGAC	-0.128
CGTCTCCA	0.149
AAGGGATC	-0.0523
CGGAGATA	0.01
AGTCCAGA	0.0276
AGGAGCTA	-0.252
ATCCCGTA	0.0388
CAGCACCG	0.109
CATGTGTA	0.198
AGGCCAAG	-0.147
AGGAGCAC	0.0155
AACAGGGA	-0.041
CGAATGCA	-0.132
CAGAGTGC	0.0334
AGCCTCTA	-0.251
CCCACCCC	0.389
ACATCTTG	0.0412
AGATATTC	-0.119
AATAAACG	-0.197
GGCTCGTA	0.237
GTTTACAA	-0.0707

Sequence	PBM E-score
CTCATTAC	-0.00531
TCCGCCAA	-0.0919
GGCATGCA	-0.0207
ACGGCCTC	-0.0149
ACTTGCTG	0.0601
AACCCTAC	-0.122
ATGGACCC	-0.0068
ATTATACG	0.303
AAGGGCAT	-0.197
AGTCCGAT	-0.026
AATCACAA	0.187
GTCTCAAC	0.104
ACTGGTCA	0.0911
GATTATAA	0.0655
AGCGGTAC	-0.0927
AAAGGATA	-0.0494
ATTGAGAG	0.0673
GCAGAGAA	-0.168
GCCGGTCC	-0.0382
CGGCTCAC	0.168
CCGGGGAA	-0.184
CGCGAGCC	0.252
AATGGAAA	-0.116
CAGTAGGG	-0.0814
ATAGTCGG	0.0546

Sequence	PBM E-score
GGCGCGGA	0.0292
ACGTCCCC	-0.0926
AGTGTGAC	0.209
ATCCTAGA	-0.158
AGGGTACG	-0.117
ACAGTAGA	0.0362
CAGTACAG	0.0272
AATCCCCT	-0.0554
AATTAGTC	0.29
GCCCAACA	-0.126
CAGGCTTC	-0.0775
CAGTGCGA	0.0486
CCGAAGCC	-0.108
AGCTGATG	0.129
CCGGACTC	0.303
CATTCGGG	0.0198
AGCAAGTG	-0.0415
ACTAGCTC	0.0864
GCGCGTCA	0.0521
CCGTCTCA	0.0978
AATTTATA	-0.00261
CATGAAGG	0.11
ATTGGAGG	-0.123
CCGTCGCA	0.0831
CAATACGG	-0.0474

Sequence	PBM E-score
AAGGCCTT	-0.364
ATGCGACC	0.142
CGACTACC	0.22
GCATCCAA	-0.223
CTTGTTAC	-0.151
ATGGTTAA	0.198
CATCTTAG	-0.0177
GTTTACCA	0.0758
ATCGATAG	0.0675
ACTCCTGC	0.192
AAGCAGAG	-0.194
ATCTCGGG	0.178
GCAGACCA	-0.0259
ACGCGACA	0.0104
GCACTTTA	-0.249
ACGCGACT	0.235
GCGTGGTA	0.0698
ACGAGGAA	0.142
ATCACCTC	0.0402
GTAGGGGA	-0.0734
ATGCCAAT	0.0469
AGCGTCCC	-0.282
GAATAAAC	-0.00787
CAAGATCC	0.0159
CACCCAAG	0.014

Sequence	PBM E-score
GAGAACTA	-0.0914
TCATAGCA	0.158
CCGACGAG	0.0204
CGGGGCAG	-0.0605
CTTGAATC	0.13
CTGGAGGA	-0.0803
AACCTAGG	-0.0726
GCCGGGAA	-0.111
AAACGACG	0.128
CAGCATCC	-0.136
GATCCTGA	0.0271
CCGAGGGC	0.0794
TACCCCCA	-0.00494
CGTGCTGA	0.0493
AGCCTTAC	-0.235
ACCGGTCC	-0.199
AGCAGACC	-0.0502
AAGTCGTG	0.106
GACTAACA	0.354
CCTCTGTA	-0.16
GAGGTAGC	-0.157
ACAAAACG	0.142
AATAGTGT	0.146
CGGTCACA	0.0193
CCTATGCC	-0.0314

Sequence	PBM E-score
CACGGCCA	0.106
TGCGGTAA	-0.0231
GGAGGGGA	0.219
GCCAACAA	-0.0809
CCAGCAAG	-0.0664
AATCGATC	0.143
GCAAGTAC	-0.109
GAAAGGGC	-0.182
AAGACAAG	-0.0934
CTTGTCAC	0.00301
CGTGGGTA	0.069
CTGAGTCC	0.292
AGATGTGG	-0.0571
AGCATGAC	0.219
CCTAAACA	-0.0387
ATATCCAA	0.105
CCGAGCGC	0.126
AATTGTTC	0.0494
TAGTCTAA	-0.0119
TTCTCCAA	-0.202
GCAAGGCC	-0.139
CGCTAACG	-0.0402
GGTTAAAA	-0.139
CTACTACC	0.0262
TGCCTTAA	-0.296

Sequence	PBM E-score
ACACGTAA	-0.144
CACACTGA	0.0767
ATATAGGG	0.107
GTCGCCCA	0.0863
GGGAGACC	-0.232
GTGATGTA	0.108
AACCCGCC	0.136
CTCACGCC	0.239
GTACAGAA	-0.0922
CCGTATCG	-0.054
CCGCGCAG	-0.0663
GGGCCACA	0.0234
CCGTCGTC	-0.0927
ATTCGCGC	0.243
CAGACGAG	-0.104
CGCTTAAC	-0.225
AGAAGCCC	-0.0955
CATAGGTC	0.118
GGGCCCCA	-0.156
CAAGTACG	-0.166
AGTCCTCA	0.0606
ATCCTGCA	0.172
CGCAGACG	0.0107
GACCGATC	-0.0904
ATTGAATG	0.04

Sequence	PBM E-score
AAGGTCCA	-0.0882
GTGTTGAA	-0.0521
AACCTATC	-0.103
AAAGCTCT	-0.374
CTTGGCTC	-0.0425
AGCGGAGG	-0.142
GGCGTTAC	-0.119
ACCTTAGG	-0.166
ACGTAGGC	-0.183
AGATACCG	-0.0775
CTTACATA	-0.0304
CAATCGTC	0.144
ACGAAGGG	0.0329
CCGTCACA	-0.0936
TACTTTCA	-0.147
CCCTACTC	-0.067
AATCTACA	0.0335
AGTGACAC	0.215
CCCCCTTA	-0.195
AGCTTGAC	0.0387
GAATCACA	0.341
CGCATAGA	0.0797
AAACGCTT	-0.245
TCTTAACA	-0.0919
CACTTGAA	-0.042

Sequence	PBM E-score
AGGAGCAT	-0.0306
AGTTAACC	0.053
CGAGACGC	-0.0341
AATACATT	0.0691
CGTGACTA	0.419
CTAATCGA	0.151
AATACCGA	0.00846
ACTCTGAA	0.043
AGATAAGA	0.00412
CTTACAGA	-0.204
AGCGCAGC	-0.164
CAATGCAG	-0.00246
CCCGATGA	0.273
TATGGCGA	0.014
ATAGAGAA	-0.123
CAGTCAAA	-0.0678
ACAGGCAC	0.0123
CCAAATGC	-0.119
AGTACTAT	0.149
ATTACTCA	0.29
ACTATGCC	0.0937
CCCTGCGG	0.00618
AACACTCT	0.00708
ACAATGTC	0.167
AAAAGTGG	-0.0645

Sequence	PBM E-score
ATCCGCCG	0.172
AGTTGTTA	-0.0902
AAGCGTGT	-0.137
AGCCAGTG	0.00862
TCGGGTCA	0.182
CGCTATAA	-0.11
ACATTGCG	0.0694
AACACCCA	0.0787
GCGCTGTA	-0.0763
GCACGAAA	0.0619
ATTCGTGA	0.149
GAGTGCCA	-0.251
ATAGAGAT	-0.0731
GCAGCCGA	0.0559
ATCATATC	0.3
GACAATGA	-0.0528
GCCAAGTA	-0.161
CGCTACTA	0.0896
TGCTGACA	0.0211
CGCAAAAA	-0.0621
CAAGAATC	0.179
ATCAACGA	-0.0479
CAGGACAC	0.135
TATAATCA	0.2
AACAACCG	0.0157

Sequence	PBM E-score
AAATATAT	0.22
CGGGTTCA	0.0938
CATATAAC	0.163
ACCCCACT	0.0662
ACAGTATG	0.277
AGTCCACA	0.0206
CACTTCCA	-0.089
AGCGCCTC	-0.0748
AAAGCAAC	-0.066
AACAGTCG	-0.0436
GGGGATAA	0.0234
CCCTTCGC	-0.0743
ACTCCGGG	0.25
TCTAGCCA	0.0254
AAATGTAT	0.116
CAAGCCGA	0.129
GGTCTTCA	-0.235
AACATTAT	0.086
CAGATGTA	-0.0675
AAGCACAG	0.0788
CACGGTTA	0.0597
CCATAGAA	0.0209
CAAATTCC	-0.0834
CAAAGGGA	-0.0236
TGCGTTAA	-0.0218

Sequence	PBM E-score
ACGGCGGA	0.142
CCGGGCCC	-0.0522
AGTACCAA	0.208
AGCACGTC	-0.124
ATACACAC	0.142
AGTCGTGG	0.227
GAACAAAC	0.125
AACATCAC	0.0175
GGAATCGA	-0.0746
GTATCACA	0.202
TTACAGAA	-0.218
GTAGAAAA	-0.227
TGATCTAA	-0.0535
AGGCTTCC	-0.119
CCCGTGAA	-0.0611
TTGGTAAA	-0.12
GAATCGCC	0.201
CGGATGTA	-0.142
AGGAGGCA	-0.227
CTTGACTC	0.262
GCTGTGGA	0.0567
ACAGACGG	-0.0633
AAATGGCC	-0.311
ACTTACGG	-0.179
ATGAGGCC	-0.318

Sequence	PBM E-score
AGCCGATA	-0.0477
GGTCTGAA	0.0326
ACTAAGCA	-0.0575
CCTGCTGC	0.0109
GAAGTGTC	-0.095
ACTGAGTG	0.0665
AGGTTTCA	0.0277
TACTATCA	0.235
ACCCGCGT	0.00191
GTTTCGCA	-0.137
CATATACC	0.0435
GGGGCAGA	-0.126
ATCAGAGA	0.0517
CATTCTAA	-0.066
AATCACTC	0.115
ACGCACCA	0.0769
CTGTTTGC	0.0939
CTACATGA	0.227
CGATTGAA	-0.0599
